Laboratory results reported in publication PMC9792355.
These are yes or no findings as the source states them, for the method shown. In cells and extracts the contact can be indirect. Some binding calls cover weakened binding; strength is not graded here.

Amino acid sequences for entries named in this document (tags omitted). A change or cut given only in a name is not applied to a line headed by its entry. Chains listed by the source or under a name are the forms on record and can include a tag or linker.
UniProt P07947: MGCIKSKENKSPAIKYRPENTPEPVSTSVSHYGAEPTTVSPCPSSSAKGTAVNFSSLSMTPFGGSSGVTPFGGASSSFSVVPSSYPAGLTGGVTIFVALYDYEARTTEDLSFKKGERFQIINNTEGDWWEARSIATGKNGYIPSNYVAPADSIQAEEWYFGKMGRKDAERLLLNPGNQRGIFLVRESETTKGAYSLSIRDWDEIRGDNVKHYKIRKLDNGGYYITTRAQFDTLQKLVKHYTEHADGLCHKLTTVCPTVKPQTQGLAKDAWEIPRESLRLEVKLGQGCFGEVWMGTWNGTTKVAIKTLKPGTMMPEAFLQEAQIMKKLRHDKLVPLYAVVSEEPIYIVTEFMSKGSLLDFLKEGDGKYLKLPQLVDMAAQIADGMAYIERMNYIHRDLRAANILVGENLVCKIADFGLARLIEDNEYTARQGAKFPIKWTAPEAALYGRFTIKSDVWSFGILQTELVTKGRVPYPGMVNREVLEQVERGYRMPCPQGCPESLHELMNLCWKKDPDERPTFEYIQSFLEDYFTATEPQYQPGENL
UniProt P51451: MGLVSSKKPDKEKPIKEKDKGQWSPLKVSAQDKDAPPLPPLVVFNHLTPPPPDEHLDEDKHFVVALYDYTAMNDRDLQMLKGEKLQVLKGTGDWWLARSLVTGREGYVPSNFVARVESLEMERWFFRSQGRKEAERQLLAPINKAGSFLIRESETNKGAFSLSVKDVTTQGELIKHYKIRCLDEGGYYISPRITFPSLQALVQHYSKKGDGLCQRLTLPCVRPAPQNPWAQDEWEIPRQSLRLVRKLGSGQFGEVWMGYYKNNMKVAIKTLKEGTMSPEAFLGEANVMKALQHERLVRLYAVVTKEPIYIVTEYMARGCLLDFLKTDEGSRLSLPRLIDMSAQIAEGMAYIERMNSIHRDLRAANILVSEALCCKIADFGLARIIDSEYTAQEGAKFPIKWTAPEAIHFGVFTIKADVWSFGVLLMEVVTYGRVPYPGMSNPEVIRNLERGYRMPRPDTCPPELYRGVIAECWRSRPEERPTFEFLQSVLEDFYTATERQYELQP
UniProt P42685: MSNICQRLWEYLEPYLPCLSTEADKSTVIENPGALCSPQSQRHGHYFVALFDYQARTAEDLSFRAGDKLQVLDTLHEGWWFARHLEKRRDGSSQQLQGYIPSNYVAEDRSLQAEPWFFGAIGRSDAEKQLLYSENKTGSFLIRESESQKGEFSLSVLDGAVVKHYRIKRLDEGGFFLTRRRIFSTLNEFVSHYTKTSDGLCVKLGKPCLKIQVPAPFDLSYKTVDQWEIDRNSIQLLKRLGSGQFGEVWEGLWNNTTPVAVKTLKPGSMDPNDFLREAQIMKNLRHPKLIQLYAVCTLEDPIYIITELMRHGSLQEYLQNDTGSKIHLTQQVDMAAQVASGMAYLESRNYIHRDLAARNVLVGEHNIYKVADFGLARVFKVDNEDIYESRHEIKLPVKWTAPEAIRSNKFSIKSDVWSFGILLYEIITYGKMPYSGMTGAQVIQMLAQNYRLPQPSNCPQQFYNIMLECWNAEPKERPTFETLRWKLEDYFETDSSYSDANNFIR
UniProt P07948: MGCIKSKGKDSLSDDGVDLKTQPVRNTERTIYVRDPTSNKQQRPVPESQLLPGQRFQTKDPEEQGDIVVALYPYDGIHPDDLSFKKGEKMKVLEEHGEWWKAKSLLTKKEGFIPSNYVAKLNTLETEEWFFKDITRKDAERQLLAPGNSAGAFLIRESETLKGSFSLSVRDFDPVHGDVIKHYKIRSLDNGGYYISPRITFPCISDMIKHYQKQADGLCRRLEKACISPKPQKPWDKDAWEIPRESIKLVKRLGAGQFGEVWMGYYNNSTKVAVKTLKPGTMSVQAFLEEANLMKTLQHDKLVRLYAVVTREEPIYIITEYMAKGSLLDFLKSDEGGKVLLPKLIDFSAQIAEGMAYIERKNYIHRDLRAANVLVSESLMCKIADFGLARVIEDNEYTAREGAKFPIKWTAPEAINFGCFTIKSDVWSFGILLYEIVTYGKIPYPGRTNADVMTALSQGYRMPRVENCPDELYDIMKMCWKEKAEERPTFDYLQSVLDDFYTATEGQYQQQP
C1-fused HCK Y30F K7R mutant (P08631, form named): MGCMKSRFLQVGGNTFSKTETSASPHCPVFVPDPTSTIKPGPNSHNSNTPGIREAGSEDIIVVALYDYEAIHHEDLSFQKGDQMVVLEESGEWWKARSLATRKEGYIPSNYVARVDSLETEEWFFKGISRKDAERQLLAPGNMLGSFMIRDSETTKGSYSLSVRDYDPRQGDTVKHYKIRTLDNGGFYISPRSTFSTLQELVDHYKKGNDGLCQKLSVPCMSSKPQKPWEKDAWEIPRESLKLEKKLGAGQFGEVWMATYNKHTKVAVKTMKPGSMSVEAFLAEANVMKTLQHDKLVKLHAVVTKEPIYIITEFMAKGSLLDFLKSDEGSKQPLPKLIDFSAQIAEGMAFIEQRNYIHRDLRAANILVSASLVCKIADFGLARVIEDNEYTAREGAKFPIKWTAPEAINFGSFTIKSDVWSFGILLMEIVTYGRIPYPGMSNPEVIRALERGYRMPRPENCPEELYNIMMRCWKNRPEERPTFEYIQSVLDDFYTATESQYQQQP
C1-fused HCK Y30F Y390F mutant (P08631, form named): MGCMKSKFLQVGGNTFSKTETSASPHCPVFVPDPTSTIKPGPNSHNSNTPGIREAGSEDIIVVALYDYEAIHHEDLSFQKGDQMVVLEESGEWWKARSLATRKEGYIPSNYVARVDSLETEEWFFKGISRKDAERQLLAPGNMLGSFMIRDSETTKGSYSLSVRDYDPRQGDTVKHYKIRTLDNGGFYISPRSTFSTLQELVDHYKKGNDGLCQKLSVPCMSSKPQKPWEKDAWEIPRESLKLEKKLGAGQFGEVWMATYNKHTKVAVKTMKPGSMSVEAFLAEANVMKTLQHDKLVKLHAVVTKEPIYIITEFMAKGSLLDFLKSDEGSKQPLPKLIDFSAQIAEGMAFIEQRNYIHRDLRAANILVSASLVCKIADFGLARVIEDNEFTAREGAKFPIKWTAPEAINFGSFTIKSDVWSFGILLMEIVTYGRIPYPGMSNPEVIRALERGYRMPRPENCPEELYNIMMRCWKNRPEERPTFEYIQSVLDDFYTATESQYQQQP
W93K R150M HCK double mutant (P08631, form named): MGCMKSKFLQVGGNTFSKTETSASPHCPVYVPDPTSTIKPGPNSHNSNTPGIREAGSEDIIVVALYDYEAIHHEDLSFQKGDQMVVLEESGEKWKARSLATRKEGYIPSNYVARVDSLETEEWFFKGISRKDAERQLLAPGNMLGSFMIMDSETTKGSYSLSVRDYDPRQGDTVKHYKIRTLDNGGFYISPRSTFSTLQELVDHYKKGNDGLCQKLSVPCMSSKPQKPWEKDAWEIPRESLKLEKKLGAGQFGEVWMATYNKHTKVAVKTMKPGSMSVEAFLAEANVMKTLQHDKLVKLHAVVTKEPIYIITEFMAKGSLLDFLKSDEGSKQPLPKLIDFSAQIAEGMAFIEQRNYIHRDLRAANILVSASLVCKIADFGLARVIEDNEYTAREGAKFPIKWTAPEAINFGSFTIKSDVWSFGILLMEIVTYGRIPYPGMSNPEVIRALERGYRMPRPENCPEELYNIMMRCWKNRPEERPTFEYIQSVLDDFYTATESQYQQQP
N1-fused HCK W234A Y390F mutant (P08631, form named): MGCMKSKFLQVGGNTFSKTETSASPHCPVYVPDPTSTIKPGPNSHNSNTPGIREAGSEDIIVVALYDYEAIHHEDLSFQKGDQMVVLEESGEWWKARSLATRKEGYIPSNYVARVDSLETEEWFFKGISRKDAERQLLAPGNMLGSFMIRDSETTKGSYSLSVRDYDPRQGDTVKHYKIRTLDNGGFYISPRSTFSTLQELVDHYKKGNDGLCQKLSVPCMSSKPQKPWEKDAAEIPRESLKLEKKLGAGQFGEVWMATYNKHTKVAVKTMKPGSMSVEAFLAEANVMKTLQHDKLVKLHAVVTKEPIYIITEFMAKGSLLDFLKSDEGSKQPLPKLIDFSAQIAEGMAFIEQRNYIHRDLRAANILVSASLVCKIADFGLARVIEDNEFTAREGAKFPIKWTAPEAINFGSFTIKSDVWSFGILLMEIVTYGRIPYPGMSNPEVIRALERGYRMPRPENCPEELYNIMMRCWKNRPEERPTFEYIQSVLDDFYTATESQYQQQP
N1-fused HCK Y501F mutant (P08631, form named): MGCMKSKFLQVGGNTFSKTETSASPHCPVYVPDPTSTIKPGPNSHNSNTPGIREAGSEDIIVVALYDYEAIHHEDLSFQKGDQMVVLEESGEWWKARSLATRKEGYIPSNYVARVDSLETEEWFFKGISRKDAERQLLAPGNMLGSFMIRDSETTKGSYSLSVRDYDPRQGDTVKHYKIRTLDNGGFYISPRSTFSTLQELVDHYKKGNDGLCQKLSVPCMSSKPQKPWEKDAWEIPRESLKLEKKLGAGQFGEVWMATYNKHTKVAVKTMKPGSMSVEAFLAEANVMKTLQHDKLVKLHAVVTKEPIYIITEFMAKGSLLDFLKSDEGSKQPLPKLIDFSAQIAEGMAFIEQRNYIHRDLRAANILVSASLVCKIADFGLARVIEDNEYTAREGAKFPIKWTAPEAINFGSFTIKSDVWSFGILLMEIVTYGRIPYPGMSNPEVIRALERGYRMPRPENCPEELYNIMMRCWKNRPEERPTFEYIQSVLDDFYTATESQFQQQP
C1-fused HCK P228A mutant (P08631, form named): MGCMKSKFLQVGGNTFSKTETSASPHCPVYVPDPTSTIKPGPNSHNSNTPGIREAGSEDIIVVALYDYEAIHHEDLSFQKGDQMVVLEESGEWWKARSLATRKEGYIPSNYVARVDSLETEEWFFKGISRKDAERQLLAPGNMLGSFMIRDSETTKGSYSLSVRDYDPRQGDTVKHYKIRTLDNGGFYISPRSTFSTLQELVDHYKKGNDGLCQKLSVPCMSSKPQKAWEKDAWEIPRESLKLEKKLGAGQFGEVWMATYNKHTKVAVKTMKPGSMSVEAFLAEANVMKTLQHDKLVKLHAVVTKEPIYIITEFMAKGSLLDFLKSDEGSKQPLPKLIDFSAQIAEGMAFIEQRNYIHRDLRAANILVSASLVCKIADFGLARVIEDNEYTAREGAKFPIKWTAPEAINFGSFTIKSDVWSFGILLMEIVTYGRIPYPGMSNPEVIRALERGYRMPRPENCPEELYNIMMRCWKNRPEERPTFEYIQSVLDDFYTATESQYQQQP
UniProt O75563: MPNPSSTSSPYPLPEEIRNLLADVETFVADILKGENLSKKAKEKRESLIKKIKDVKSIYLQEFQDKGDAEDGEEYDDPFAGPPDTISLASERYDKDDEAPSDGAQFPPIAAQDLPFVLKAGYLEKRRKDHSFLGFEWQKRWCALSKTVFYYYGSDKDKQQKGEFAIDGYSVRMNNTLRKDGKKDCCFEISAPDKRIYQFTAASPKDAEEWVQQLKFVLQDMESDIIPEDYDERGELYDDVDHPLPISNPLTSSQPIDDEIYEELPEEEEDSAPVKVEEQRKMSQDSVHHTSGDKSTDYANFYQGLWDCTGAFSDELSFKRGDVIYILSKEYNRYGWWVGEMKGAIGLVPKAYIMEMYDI
N2-SKAP2 D129K-3YF mutant (O75563, form named): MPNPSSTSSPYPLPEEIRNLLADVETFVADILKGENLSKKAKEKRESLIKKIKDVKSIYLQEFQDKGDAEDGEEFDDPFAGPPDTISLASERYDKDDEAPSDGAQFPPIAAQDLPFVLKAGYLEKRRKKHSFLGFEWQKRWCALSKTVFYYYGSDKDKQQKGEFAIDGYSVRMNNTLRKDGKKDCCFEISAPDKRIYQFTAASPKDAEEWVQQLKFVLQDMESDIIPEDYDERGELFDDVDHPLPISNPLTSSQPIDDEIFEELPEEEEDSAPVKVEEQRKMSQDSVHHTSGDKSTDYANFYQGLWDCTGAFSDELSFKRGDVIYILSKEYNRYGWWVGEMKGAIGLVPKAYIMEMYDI
N2-SKAP2 DIM^−-D129K mutant (O75563, form named): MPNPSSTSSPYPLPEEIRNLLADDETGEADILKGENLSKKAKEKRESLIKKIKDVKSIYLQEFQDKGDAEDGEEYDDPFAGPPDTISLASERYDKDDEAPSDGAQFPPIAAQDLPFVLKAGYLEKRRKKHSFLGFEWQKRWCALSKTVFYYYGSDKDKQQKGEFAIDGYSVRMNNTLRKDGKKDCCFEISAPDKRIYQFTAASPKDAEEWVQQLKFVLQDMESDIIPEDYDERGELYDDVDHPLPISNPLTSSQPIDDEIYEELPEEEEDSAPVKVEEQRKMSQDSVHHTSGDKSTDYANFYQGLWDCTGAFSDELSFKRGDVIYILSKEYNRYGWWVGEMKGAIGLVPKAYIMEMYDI

What was measured:
Experiment in all cases: split reporter; Gaussia princeps luciferase complementation assay (GPCA) in HEK293T cells: Gluc2 on SKAP2/SKAP1, Gluc1 at the N (N1) or C (C1) terminus of the SRC kinase; 100 ng plasmid pair, luminescence read after lysis; normalized luminescence ratio (NLR), for mutants divided by that of wildtype SKAP2; loss of interaction = mean relative NLR among the nine kinases below 0.25
N1-fused YES = N1-fused YES (UniProt P07947)
[1] = biological target: N1-fused BLK (B lymphocyte kinase) (UniProt P51451)
[2] = biological target: N1-fused FRK (Fyn-related Src family tyrosine kinase) (UniProt P42685)
[3] = biological target: C1-fused LYN (LCK/Yes-related novel protein tyrosine kinase) (UniProt P07948)
[4] = biological target: N1-fused LYN (LCK/Yes-related novel protein tyrosine kinase) (UniProt P07948)
[5] = biological target: C1-fused HCK Y30F K7R mutant (UniProt P08631)
[6] = biological target: C1-fused HCK Y30F Y390F mutant (UniProt P08631)
[7] = biological target: W93K R150M HCK double mutant (UniProt P08631)
[8] = biological target: N1-fused HCK W234A Y390F mutant (UniProt P08631)
[9] = biological target: C1-fused HCK Y501F mutant (UniProt P08631)
[10] = biological target: N1-fused HCK P228A mutant (UniProt P08631)
[11] = biological target: C1-fused HCK P228A mutant (UniProt P08631)
[12] = biological target: N1-fused HCK W234A K7R mutant (UniProt P08631)
[13] = biological target: N1-fused HCK Y501F mutant (UniProt P08631)

Row | binding (N1-fused YES) | binding [1] | binding [2] | binding [3] | binding [4] | binding [5] | binding [6] | binding [7] | binding [8] | binding [9] | binding [10] | binding [11] | binding [12] | binding [13] | Substance
1 | binds | binds | binds | binds | binds |  |  |  |  |  |  |  |  |  | N2-SKAP2 3YF mutant (Y75F, Y237F, Y261F) (from UniProt O75563 1-359)
2 | binds | binds | binds | binds | binds | binds | binds | binds | binds | binds | binds | binds | binds | binds | N2-SKAP2 (SRC kinase adaptor phosphoprotein 2, wildtype) (from UniProt O75563 1-359)
3 | binds | binds | binds | binds | binds |  |  |  |  |  |  |  |  |  | N2-SKAP2 D129K mutant (from UniProt O75563 1-359)
4 | binds | binds | binds | binds | binds |  |  |  |  |  |  |  |  |  | N2-SKAP2 D129K-3YF mutant (from UniProt O75563 1-359)
5 | binds | binds | binds | binds | binds |  |  |  |  |  |  |  |  |  | N2-SKAP2 DIM^− mutant (V24D, F27G, V28E) (from UniProt O75563 1-359)
6 | binds | binds | binds | binds | binds |  |  |  |  |  |  |  |  |  | N2-SKAP2 DIM^−-D129K mutant (from UniProt O75563 1-359)
7 | no binding | no binding | no binding | no binding | no binding |  |  |  |  |  |  |  |  |  | N2-SKAP2 SH3 deletion mutant (SH3 domain alone) (from UniProt O75563 297-358) (domain or fragment)
8 | binds | binds | binds | binds | binds |  |  |  |  |  |  |  |  |  | N2-SKAP2 W336K mutant (from UniProt O75563 1-359)
